Substitutions are numbered along the chain they refer to.
Test system: Molt-4 human acute lymphoblastic leukemia cell line
Test: Growth inhibition assay (CellTiter-Glo)
Assay type: cell-based
Conditions: 2-days treatment, 3000 cells per well, read-out: ADC potency, IC50, Molt-4

B1: Ab10-CZ (conjugate)
VH: EVQLVESGGGLVQPGRSLKLSCAASGFTFSDYAMAWVRQAPKKSLEWVATIIYDGRGTYCRDSVKGRFTISRDNAKSTLYLQMDSLRSEDTATYYCARQGDGTYHYWGYFDYWGQGVMVTVSS
VL: DIVMTQSPSSLAVSAGETVTINCKSSQSLLSSGNQKNYLAWYQQKPGQSPKLLIYWASTRQSGVPDRFIGSGSGTDFTLTISSVQAEDLAIYYCQQYYDTPYTFGAGTKVDLK
IC50: 0.047 nM

B2: Ab11-CZ (conjugate)
VH: B1 VH with S44G, T50G, C60Y, H105Y
VL: B1 VL with K24R, V110L, D111E
IC50: 0.279 nM

B3: Ab12-CZ (conjugate)
VH: B1 VH with S44G, T50S, C60Y, H105Y, Y109S
VL: B1 VL with Y93H, V110L, D111E
IC50: 0.087 nM

B4: Ab13-CZ (conjugate)
VH: QVQLKESGPGLVQPSQTLSLTCTVSGFSLSSYGVIWVRQPPGKGLEWMGIIWANGNTNYNSALKSRLSISRDTSKSQVYLKMNSLQTEDTATYYCARHYYDGTHYYGYFDYWGQGVMVTVSS
VL: DTVMTQTPSSQAVSAGEKVTMSCKSSQSLLYSENKKKYLAWYQQKPGQSPKLLIYWASTRESGVPDRFIGSGSGTDFTLTISSVQAEDLAVYYCQQYYNFPYTFGAGTKLELK
IC50: 0.38 nM

B5: Ab14-CZ (conjugate)
VH: EVKLQQSGDELVRPGASVKISCKASGYTFTSYSMHWVKERPGQGLEWIGAIFPIIGTTEYNQKFKGKATLTADKSSNTANMELSRLTSEDSAVYYCARVYLSYFDYWGQGVMVTVSS
VL: DIQMTQSPSFLSASVGDRVTINCKASQNINKYLDWYQRKHGEAPKLLIYNTNNLQTGIPSRFSGSGSGTDYTLTISSLQPEDVATYFCLQHSSRYTFGAGTKLELK
IC50: 0.025 nM

B6: Ab15-CZ (conjugate)
VH: B1 VH with A33T, S44G, C60Y, G100S, H105Y
VL: B1 VL with S31F, S82R, T100S, V110L, D111E
IC50: 0.071 nM

Reference: patent publication US20230120736A1, “ANTI-CD98 ANTIBODIES AND ANTIBODY DRUG CONJUGATES” (AbbVie Inc., priority 2016, published 2023)
